Experimental data as given in ChEMBL document CHEMBL1157539, “Thousands of chemical starting points for antimalarial lead identification” (Nature, 2010).
In all, about 13,000 compounds were measured (“IFI”: median about 4, highest 2% from about 17 on). The list shows a part of the results.

assay: GSK_TCMDC: Inhibition Frequency Index (IFI). The number of non-kinase HTS assays where a compound showed > 50 % inhibition, expressed as a percentage of the number of such assays in which the compound was tested (-0 is zero); assay type: functional

Point of comparison: `CC(C)NC[C@@H](O)[C@H](Cc1ccccc1)NC(=O)c1cc2c3c(c1)c(C(C)C)cn3CCS(=O)(=O)N2C`, IFI 1.47%. Against it:
- CS(=O)(=O)c1ccc(-c2cncc(Nc3cccc([N+](=O)[O-])c3)c2)cc1 — higher, 3.05%
- COc1ccc(Nc2nccc(N3CCC(NC(=O)c4cccc(NC(C)=O)c4)C3)n2)cc1 (stereo unspecified) — higher, 3.08%
- CCc1c(CCNCCCCCCNCCc2ccc(OC)c(OC)c2C)ccc(OC)c1OC — higher, 3.6%
- CN1CCN(CCCCCCNc2c3ccccc3nc3ccccc23)CC1 — higher, 3.52%
- Nc1nccc2ccc(-c3cccnc3)cc12 — higher, 4.85%
- CNCCNCc1ccc(-c2ccc(-c3nc4cc(C(F)(F)F)ccc4[nH]3)s2)cc1 — higher, 8.82%
- CCc1ccc(Cc2cnc3nc(N)nc(N)c3c2C)cc1CC — higher, 1.64%
- COc1ccccc1Cc1nc2ccccc2nc1SCC(=O)Nc1cccc(C(F)(F)F)c1 — higher, 2.17%
- CCOc1ccc2c(=NN=Cc3c4ccccc4cc4ccccc34)cc(C)[nH]c2c1 — lower, 1.46%
- Oc1cccc2c1CC(NCc1ccccc1)CC2 (stereo unspecified) — lower, -0%
- CCCN(CCC)CCOc1ccc(C(O)(C#CC(O)(c2ccc(OCCN(CCC)CCC)cc2)c2cccc(Cl)c2)c2cccc(Cl)c2)cc1 (stereo unspecified) — higher, 8.15%
- CCCCCCCOc1ccc(NC(=O)Nc2ccc(Cn3ncc(N4CCCNCC4)c(Cl)c3=O)cc2)cc1 — higher, 19.1%
- O=C(Nc1cccc(C(F)(F)F)c1)NC1CCN(c2ccnc3ccccc23)C1 (stereo unspecified) — higher, 1.56%
- CC(C)(C)CCOC(=O)N1CCc2c(cc(O)c(O)c2Cl)C(c2ccc(O)cc2)C1 (stereo unspecified) — higher, 4.17%
- CN(C)CCOc1ccc(-c2cc(-c3ccc(Cl)c(O)c3)c(-c3ccnc(N)n3)o2)cc1 — higher, 6.04%
- CC(C)[C@H](NC(=O)c1ccc(O)c(-c2ccc(Cl)c(Cl)c2)c1)C(=O)NCCN1CCOCC1 — lower, -0%
- COc1ccc2nccc([C@@H](O)CN3CCC(NC(=O)/C=C/c4cc(F)cc(Br)c4)CC3)c2c1 — higher, 3.65%
- COc1ccc2[nH]ccc(=NN=Cc3cccc(F)c3)c2c1 — higher, 5.26%
- O=C(/C=C/c1ccc(Cl)c(Cl)c1)NCCCCCN1CCC(NC(=O)Nc2cc(F)cc(F)c2)CC1 — higher, 7.95%
- Cc1cccc2nc(-c3ccc(-c4cccc(CNCC5CCCO5)c4)cc3)[nH]c12 (stereo unspecified) — higher, 2.97%
- C[C@H](Cc1ccc(OCCNC[C@H](O)c2cccc(Cl)c2)cc1)NC[C@H](O)c1ccc(Cl)c(Cl)c1 — higher, 11.4%
- Cc1nc(-c2ccc(C(F)(F)F)cn2)sc1C(=O)N1CCc2cc3nccc(N4CCN5CCC[C@H]5C4)c3cc21 — higher, 5.88%
- Oc1cc(Nc2ccnc3cc(-c4cccc(CN5CCOCC5)c4)ccc23)c(F)cc1Cl — higher, 5.22%
- COc1ccc(-c2cnc3[nH]cc(-c4ccc(C(=O)O)c(C)c4)c3c2)cn1 — higher, 6.73%
- CCCCCCN(CCCCCC)CCCCNc1c2ccc(Cl)cc2nc2ccc(OC)cc12 — higher, 10.6%
- CC(=O)Nc1ccc(CN2CCC(NC(=O)c3cc(-c4ccc(N(C)C)cc4)cs3)C2)cc1 (stereo unspecified) — higher, 3.64%
- CCc1cn2c3c(cc(C(=O)N[C@@H](Cc4cccc(Cl)c4)[C@H](O)CNC4CCCCC4)cc13)N(C)S(=O)(=O)CC2 — higher, 5.51%
- CCc1cn2c3c(cc(C(=O)N[C@@H](Cc4cc(F)cc(F)c4)[C@H](O)CNC4CCCCC4)cc13)N(C)S(=O)(=O)CC2 — higher, 5.07%
- N#Cc1ccc2c(c1)CCN(CCC1CCC(NC(=O)c3cccc(-c4ccc(F)cc4)c3)CC1)CC2 (stereo unspecified) — higher, 2.22%
- O=C(NC1CCN(c2ccnc3ccccc23)C1)c1ccc(OC(F)(F)F)cc1 (stereo unspecified) — higher, 3.13%
- COc1ccc2c(c1)CC(NCc1ccc(-c3ccc4nc[nH]c4c3)cc1)C2 (stereo unspecified) — lower, -0%
- CC(C)NCc1ccc(-c2cccc(NC(=O)c3cccc(Cl)c3)c2)cc1 — higher, 3.88%
- Cc1ccc(C)c(Cn2c(N3CCC(C(=O)NCc4cccs4)CC3)nc3ccccc32)c1 — higher, 5.94%
- O=C(Cc1ccccc1)NC(c1ccc(Cl)cc1)c1ccc2cccnc2c1O (stereo unspecified) — higher, 6.06%
- CC(C)CCN1CCCN(Cc2cccc(NC(=O)c3cc4ccccc4s3)c2)CC1 — higher, 4.62%
- COc1ccccc1Nc1nc(NC2CCN(C)CC2)cc(-c2cccc(C(F)(F)F)c2)n1 — higher, 15.5%
- CCCCCN1CCC(NS(=O)(=O)c2cccc(C(=O)Nc3ccc(Cl)cc3)c2)CC1 — higher, 6.8%
- Fc1ccc(Nc2ccnc3cc(-c4cccc(CNCCN5CCOCC5)c4)ccc23)c(Cl)c1 — higher, 4.32%
- CS(=O)(=O)NCCCNCc1cccc(-c2ccc(-c3nc4cc(C(F)(F)F)ccc4[nH]3)s2)c1 — higher, 4.95%
- CC(C)OCCCNC(=O)c1nc(-c2cccc(C(F)(F)F)c2)sc1C(C)C — higher, 2.63%
- CC(C)(C)c1ccc(CNC(=O)c2cc(CNC3CCNC3)ccc2O)cc1 (stereo unspecified) — lower, 1.46%
- COCCNCc1ccc(-c2ccc(CNc3ccc4ncccc4c3)cc2)cc1 — higher, 10.1%
- CCc1cc2c(N)nc(N)nc2nc1-c1ccccc1 — lower, 0%
- O=C(Nc1cccc(CN2CCN(C(=O)c3cccc(F)c3)CC2)c1)c1cccs1 — higher, 3.05%
- CCn1ncc2c(NC3CCOCC3)c(CNC(=O)c3ccnn3C)c(C)nc21 — lower, 0%
- c1cncc(Oc2ccc(Nc3ccnc4cc(-c5cccc(CN6CCCCC6)c5)ccc34)cc2)c1 — higher, 9.56%
- CCN(CC)CC(O)CNc1c2ccc([N+](=O)[O-])cc2nc2cc(OC)c(OC)cc12 (stereo unspecified) — higher, 5.71%
- Cc1cc(OCC2CCN(c3ncc(C(=O)Nc4ccccc4)cc3Cl)CC2)ccc1F — higher, 4.17%
- CCCCCCN1CCCN(Cc2ccc(C(=O)Nc3cccc(CC)c3)cc2)CC1 — higher, 7.87%
- CCOc1ccc(C(=O)Nc2cc(Br)c3c(c2)CNCC3)cc1C(F)(F)F — higher, 8.51%
- CC1=NN(c2ccc(C)c(C)c2)C(=O)C1=NNc1cccc(-c2cccc(NC(=O)OC(C)(C)C)c2)c1O — higher, 4.9%
- CC(NC(C)c1cccc(Cl)c1)C(=O)Nc1cc(C(F)(F)F)ccc1N1CCOCC1 (stereo unspecified) — higher, 1.82%
- CN1CCC(NCc2cccc(-c3ccc(S(=O)(=O)NCCc4ccccn4)cc3)c2)CC1 — higher, 1.75%
- CCC[C@@H]([C@@H](CC(C)C)C(=O)N[C@@H](CCCCNC(=O)c1cccc(OC)c1)C(=O)Nc1nccs1)N(O)C=O — higher, 2.13%
- COc1csc2cc(Br)ccc12 — lower, 1.46%
- Cc1cccc2nc(-c3ccc(-c4ccc(NC(=O)Nc5ccc(Cl)cc5)cc4)cc3)[nH]c12 — higher, 4%
- O=c1cc(NCCCN(Cc2cc3c(Cl)cc(Cl)cc3[nH]2)Cc2cc3c(Cl)cc(Cl)cc3[nH]2)[nH]c2ccccc12 — higher, 6.72%
- COc1ccc2nccc(N3CCN(CCNCc4ccc5c(n4)NC(=O)CS5)CC3)c2n1 — lower, 1.43%
- Cc1ccc(O)cc1Nc1ccnc2ccc(-c3cccc(CN(C)C)c3)cc12 — higher, 3.7%
- Brc1ccc(C=NNc2nc3ccccc3[nH]2)cc1 — higher, 2.17%
- NC(=O)c1cccc(C(=O)Nc2cccc(-c3ccc(-c4nc5ccccc5[nH]4)s3)c2)c1 — higher, 3.45%
- COc1ccc2c(N/N=C/c3ccccc3[N+](=O)[O-])ccnc2c1 — higher, 3.62%
- COc1cccc(NC(=O)Nc2ccc(Nc3nc(C)cc(N4CCCC4)n3)cc2)c1 — higher, 17.3%
- CCN1CCN(c2cc(C)c3cc(NC(=O)c4cncc(Br)c4)ccc3n2)CC1 — lower, 1.35%
- O=C(NCCN1CCCCC1)c1cc2cc(-c3ccccc3)ccc2n1S(=O)(=O)c1ccccc1 — higher, 5.33%
- O=C(Nc1ccc(C(F)(F)F)cc1)c1cccc(S(=O)(=O)NC2CCN(Cc3ccccc3)C2)c1 (stereo unspecified) — higher, 8.33%
- CC1CN(Cc2cccc(-c3ccc(-c4nc5cc(F)ccc5[nH]4)cc3)c2)CC(C)O1 (stereo unspecified) — higher, 5.56%
- CCOC(=O)c1cnc2c(OC)cc(OC)c(Cl)c2c1Nc1cccc(C)c1 — higher, 2.84%
- N=C(N)NC(=O)Nc1ccc(Cl)c(C(F)(F)F)c1 — higher, 1.53%
- CC(=NNC(S)=NCCc1ccccc1)c1ccccn1 — higher, 4.83%
- NC(=O)c1ccccc1Nc1nc(Nc2ccc(N3CCOCC3)cc2)ncc1[N+](=O)[O-] — higher, 7.04%
- Cc1cc(NCc2ccccc2)nc2cc(O)ccc12 — higher, 4.62%
- COc1ccc2nccc([C@@H](O)CN3CCC(NCc4cc5cc(Cl)ccc5[nH]4)CC3)c2c1 — higher, 5.97%
- Oc1ccc(CCNc2nc(NCCCOc3cccc(CN4CCCCC4)c3Cl)nc(N3CCNCC3)n2)cc1 — higher, 4.69%
- CCc1c(CCNCCCCCCNCCc2ccc(Br)cc2)ccc(OC)c1OC — higher, 11%
- CN(C)CCCNc1c2ccccc2nc2ccccc12 — higher, 3.68%
- COc1cc(C)c(NC(=O)c2cccc3c(=O)c(C)c(-c4ccccc4)oc23)cc1OC — higher, 3.64%
- O=C(Nc1ccc2c(c1)CCN2C1CCN(Cc2ccc(F)cc2Cl)C1)c1ccco1 (stereo unspecified) — higher, 3.33%
- Cc1cccc(OC2CCN(c3ncc(C(=O)NCCCN4CCCC4=O)cc3Cl)CC2)c1 — higher, 5.88%
- Cc1cc2nc(-c3ccc(C(=O)NCc4ccc(C(C)(C)C)cc4)cc3)[nH]c2cc1C — lower, 0%
- C=C[C@H]1CN(CCCCCCC)CC[C@H]1CCNc1ccnc2ccc(OC)cc12 — higher, 11.3%
- CN(C)CCN(C)Cc1ccc(-c2ccc(NC(=O)c3ccc(Cl)cc3)cc2)cc1 — higher, 9.09%
- CCOc1ccccc1CCNC(C)Cc1ccc(C(=O)Nc2ccc(CC(C)NCCc3cccc(Cl)c3)cc2)cc1 (stereo unspecified) — higher, 10%
- COc1ccc(OCC(=O)Nc2cc(-c3nc4ccccc4[nH]3)ccc2Cl)cc1 — lower, 0%
- N#Cc1cc(C(=O)Nc2ccccc2)c(N)nc1SCC(=O)Nc1ccc(Br)cc1 — higher, 4.44%
- CCn1c(-c2nonc2N)nc2c(C#CC(C)(C)O)ncc(OCCNCCc3ccc(OC)cc3)c21 — higher, 7.84%
- CC1(C)N=C(N)N=C(N)N1OCc1cc(Cl)c(CON2C(N)=NC(N)=NC2(C)C)cc1Cl — higher, 2.8%
- COc1ccc(NC(=O)/C=C/c2ccccc2Cl)cc1OCCN1CCC(NC2CC2)CC1 — higher, 4.23%
- CC(C)C(C(=O)n1ncc2c3c(N)nc(N)nc3ccc21)C(C)C — higher, 3.05%
- Cc1[nH]c2ccc(NS(C)(=O)=O)cc2c1C1CCN(CCC2CCN(C(=O)/C=C/c3ccc(Cl)c(Cl)c3)CC2)CC1 — higher, 5.8%
